# Measured values: PubChem BioAssay AID1347417 (National Center for Advancing Translational Sciences (NCATS), 2020)
# Among all 120,000 compounds or so, about 5,300 (4.4%) were called active. Inconclusive means that the source gave no clear call. Such entries were picked first, then a sample of the others. Calls follow the shape of the dose curve; as a rule, active = well fitted inhibition curve with a large enough effect; inconclusive = small, poorly fitted or top-dose-only effect; inactive = no such curve, though single readings can be large or run the other way. Potencies beside an inconclusive call are fits to weak or partial responses and may not hold up.
# Experiment: qHTS Primary assay for Inhibitors of Plasmodium falciparum Dd2 growth in vitro; also: nearly all actives have a fitted effect of over 65% in size;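 as to activity, negative = inhibition: plate controls were DMSO vehicle for no effect and reference drug for full effect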
# Settings: P. falciparum Dd2 growth, SYBR Green, 72 h; activity, negative = inhibition: at 28.9 µM (top of the series) unless noted; series mostly up to 28.9 µM
# Outline: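 Readout: SYBR Green fluorescence, 485 nm excitation, 535 nm emission, after ~16 h lysis at 37C. Before that, Dd2-infected red cells (2.5% hematocrit) grew 72 h with compound, 29 uM top final concentration.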
# Potency is read from the fitted curve at half-maximal effect; tags tell the direction and shape of the fitted curve.
Structure (SMILES),"activity, negative = inhibition",Potency,outcome
O=C1c2ccccc2CN1C1CCN(Cc2ccccc2)CC1,inconclusive: -97.8% [inhibitor],–,–
CCCN1CCCCC12Cc1ccccc1CN(C(=O)c1c(C)noc1C)C2 (stereo not drawn),–,"inconclusive: 11.2 µM [inhibitor, single point]",–
O=C(CC1CCCN(c2cnn(CC3CC3)c(=O)c2)C1)Nc1cccc(F)c1 (stereo not drawn),–,"inconclusive: 12.6 µM [inhibitor, single point]",–
CN1CCN(C(CNC(=O)c2cccc(F)c2)c2ccc3c(c2)OCO3)CC1 (stereo not drawn),inactive: -23.1%,–,–
CCOc1ccc(-n2c(Cc3ccccc3)nnc2SCc2nc(-c3ccccc3OC)no2)cc1,–,"inconclusive: 14.1 µM [inhibitor, single point]",–
CCOC(=O)c1ccccc1NC(=O)N1CCc2c(sc(C)c2CC)C1c1ccccc1 (stereo not drawn),–,"inconclusive: 17.8 µM [inhibitor, single point]",–
COc1ccccc1-c1nc2c(c(SCc3cccc(Cl)c3)n1)Cc1c(CO)cnc(C)c1O2,–,active: 2.51 µM,–
Cc1cccc(NC(=O)C(=O)NCC(c2ccc3c(c2)OCO3)N2CCOCC2)c1C (stereo not drawn),inconclusive: -42.6% [inhibitor] [at 0.594 µM],–,–
Cc1cn2c(=O)cc(COC(=O)c3cccc(NC(=O)COc4ccccc4Cl)c3)nc2s1,–,"inconclusive: 1 µM [inhibitor, full curve, poor fit]",–
CC(C)CCN1CCc2c(sc3ncnc(N4CCN(C)CC4)c23)C1,–,"inconclusive: 3.55 µM [inhibitor, partial curve, poor fit]",–
O=C(c1ccc2cc[nH]c2c1)N1CCCC(c2nn[nH]n2)C1 (stereo not drawn),inactive: 4.31%,–,–
Cc1cccc(CNC(=O)c2c(C)noc2-c2cccs2)c1,–,"inconclusive: 0.794 µM [inhibitor, full curve, poor fit]",–
Cn1ccc2c(C(=O)NCCc3cnc[nH]3)nc(-c3ccc(N4CCOCC4)cc3)cc21,–,–,inactive [at 44.1 µM]
CCc1ccc(NC(=O)CN2C(=O)NC3(CCC(C)CC3)C2=O)cc1 (stereo not drawn),inactive: -17.6%,–,–
COC1CN(c2cccc(F)c2)C12CCN(C(=O)CC1CCN(C(C)=O)CC1)CC2 (stereo not drawn),–,"inconclusive: 10 µM [inhibitor, partial curve]",–
Cc1cn2nnc(C(=O)N3CCN(c4ccccc4)CC3)c2c(=O)[nH]1,inactive: -5.81%,–,–
CC(C)C[C@@H]1N[C@H](C(=O)O)Cc2cn(CC3CC3)c3cccc1c23,–,"inconclusive: 14.1 µM [inhibitor, single point]",–
CCN(CC)S(=O)(=O)c1ccc2c(c1)N(CC(=O)NCCCN1CCN(c3ccccc3F)CC1)C(=O)CO2,–,"inconclusive: 12.6 µM [inhibitor, single point]",–
COc1ccccc1C1C=C(c2ccc(F)cc2)Nc2nc(-c3ccc(Cl)cc3)nn21 (stereo not drawn),–,active: 11.2 µM,–
COc1ccc(-n2nc3n(c2=O)CCN([S+](=O)([O-])c2cccc(C(F)(F)F)c2)C3)cc1,inactive: 25.2%,–,–
Cc1nc(N2CCC(C(=O)NCc3cccc(Cl)c3)CC2)cc(C(F)(F)F)n1,inactive: 2.63%,–,–
FC(F)(F)c1ccc(CN2CCn3c(nnc3-c3ccncc3)C2)cc1,–,"inconclusive: 17.8 µM [inhibitor, single point]",–
COc1ccc(OC)c(CNC(=O)C2CCN(c3cnc4nccnc4c3)CC2)c1,–,–,inactive

Structure (SMILES),"activity, negative = inhibition",Potency,outcome
O=C(c1ccco1)N1CCC(n2cc(-c3nc(C4CC4)no3)nn2)C1 (stereo not drawn),–,–,inactive
Cn1cc(CN2CCOC[C@H]2c2ncc(-c3ccc(S(C)(=O)=O)cc3)[nH]2)c2ccccc21,–,"inconclusive: 12.6 µM [inhibitor, single point]",–
O=C(c1ccc(CCC2COc3ccccc3O2)cc1)N1CCCCC1 (stereo not drawn),–,"inconclusive: 11.2 µM [inhibitor, single point]",–
Cc1cc(C)c(Cn2c3ccccc3c3cnn(CC(=O)NC4CCC(C)CC4)c(=O)c32)c(C)c1 (stereo not drawn),–,"inconclusive: 7.94 µM [inhibitor, single point]",–
Cc1ccc(NC(=O)N2CCCC(Cn3cnc4cccnc43)C2)cc1 (stereo not drawn),–,"inconclusive: 3.98 µM [inhibitor, partial curve, poor fit]",–
O=C(Cn1c(=O)oc2cc(S(=O)(=O)N3CCCCC3)ccc21)Nc1cccc(Cl)c1,inactive: -1.58%,–,–
CC(C)CNC1(Cc2cc(-c3ccc(F)cc3)on2)COC1,–,"inconclusive: 31.6 µM [inhibitor, single point]",–
CCCCN1C(=O)c2[nH]nc(-c3ccccc3O)c2C1c1cccc(OCc2ccccc2)c1 (stereo not drawn),–,active: 3.16 µM,–
Cc1cccc(NC(=O)CN2C(=O)NC(c3ccccc3Cl)C3=C2COC3=O)c1C (stereo not drawn),–,"inconclusive: 15.8 µM [inhibitor, single point]",–
CCc1ccc(NC(=O)c2cc(C(C)=O)n3ccccc23)cc1,–,"inconclusive: 17.8 µM [inhibitor, single point]",–
Cc1ccccc1CN1CCC2OCCN(CCc3ccccc3)C(=O)C2C1 (stereo not drawn),–,"inconclusive: 1.26 µM [inhibitor, partial curve, poor fit]",–
Cc1cc(CN2CCCC(CCNC(=O)C3(N)CC3)C2)oc1C (stereo not drawn),–,"inconclusive: 8.91 µM [inhibitor, partial curve, poor fit]",–
COc1cc(OC)cc(C(=O)NC2CCN(c3cc(-c4ccc(F)cc4)[nH]n3)CC2)c1,–,"inconclusive: 2.24 µM [inhibitor, partial curve, poor fit]",–
O=C(NCc1cccs1)c1ccc2c(c1)N(C(=O)c1ccc(F)cc1)CC2,–,"inconclusive: 10 µM [inhibitor, partial curve, poor fit]",–
Cc1nc(-c2ccccc2)n(Cc2ccccc2Cl)c(=O)c1CCO,–,"inconclusive: 20 µM [inhibitor, partial curve, poor fit]",–
O=C1NCc2ccccc2CC12CCN(Cc1ccc(-c3ccccc3)cc1)C2 (stereo not drawn),–,"inconclusive: 10 µM [inhibitor, partial curve]",–
Cc1cccc(C(=O)Nc2cccc(C(=O)OCc3cc(=O)n4c5c(sc4n3)CCCC5)c2)c1,inactive: 21.5%,–,–
Cc1nn(CC(=O)NCC2CCCO2)c(=O)c2nc(C(C)C)sc12 (stereo not drawn),inactive: -21.8%,–,–
O=C1CC2(CCN(C(=O)c3ccccc3F)CC2)Oc2cc(Cl)ccc21,–,–,inactive
CCc1ccccc1Nc1nn2c(=O)c3ccc(C(=O)NCc4cccs4)cc3nc2s1,–,active: 14.1 µM,–
CCOC(=O)Cn1c(=O)oc2cc(S(=O)(=O)Nc3cc(OC)cc(OC)c3)ccc21,inconclusive: -44.9% [inhibitor] [at 5.79 µM],–,–
CN1CCCCCCN(C(=O)c2nccc3ccccc23)[C@H]2CCC[C@H]2C1=O,–,"inconclusive: 11.2 µM [inhibitor, single point]",–
CC(C)(C)CN1CCOC[C@H]1c1ncc(-c2ccccc2)[nH]1,–,–,inactive [at 44.1 µM]

Structure (SMILES),"activity, negative = inhibition",Potency,outcome
COC(=O)C1=C(C)N=C2SC=C(CC(=O)NCC3CC3)N2C1c1cccc([N+](=O)[O-])c1 (stereo not drawn),–,"inconclusive: 1.58 µM [inhibitor, partial curve, poor fit]",–
O=C1NCCCCCCN(C(=O)COc2ccc(F)cc2)[C@H]2CCC[C@@H]12,inactive: -16.8%,–,–
O=C(Cc1cccnc1)NC1CCN(c2cnn(CC3CC3)c(=O)c2)CC1,–,"inconclusive: 7.08 µM [inhibitor, partial curve, poor fit]",–
Cc1nc(N(C)C)ncc1C(=O)N1CCN(c2ccccc2C#N)CC1,inactive: -11.2%,–,–
O=C(Nc1ccc2nc(SCC(=O)N3CCOCC3)sc2c1)c1ccc(F)cc1,–,"inconclusive: 10 µM [inhibitor, single point]",–
COc1ccc(Cn2c(C(=O)O)c(CNCc3cccs3)c3ccc(C)cc32)cc1,–,"inconclusive: 10 µM [inhibitor, single point]",–
CNC(=O)[C@@H]1CNC[C@H]1c1nc(C)no1,inactive: -1.47%,–,–
Cc1noc([C@@H]2Cc3nc[nH]c3CN2C(=O)Nc2ccccc2)n1,–,"inconclusive: 5.01 µM [inhibitor, partial curve, poor fit]",–
CCOC(=O)N1CCN(C(=O)c2cc(Cn3nc(C)cc3C)[nH]n2)CC1,inactive: -10.1%,–,–
CN1CCOc2c(C(=O)NCc3cccnc3)cc(-c3ccccc3)cc21,–,–,inactive [at 44.1 µM]
CN1C[C@H](NC2CCC2)CCC[C@@H](C(=O)NC2CC2)CC1=O,inactive: -10.8% [at 44.1 µM],–,–
Cc1cccc(N2CCN(C(=O)c3ccc4c(c3)N(C)C3CCCCN3C4=O)CC2)c1C (stereo not drawn),–,"inconclusive: 6.31 µM [inhibitor, partial curve, poor fit]",–
COc1ccc(-c2c3c(=O)n(C)c(=O)n(C)c3c3c(-c4ccccc4)nc4ccccc4n23)cc1,–,"inconclusive: 1 µM [inhibitor, single point]",–
O=C(NC1CCN(c2cc(-c3ccc(F)cc3)[nH]n2)C1)c1cc(F)ccc1Cl (stereo not drawn),–,"inconclusive: 10 µM [inhibitor, single point]",–
COc1ccc(-c2cnc(Nc3cccnc3)c3c2CCO3)cn1,–,"inconclusive: 11.2 µM [inhibitor, single point]",–
CCOC(=O)N1CCc2c(sc(NCc3ccc(OCC)cc3)c2C(=O)Nc2ccc(OC)cc2OC)C1,–,"inconclusive: 11.2 µM [inhibitor, single point]",–
COc1ccccc1OCCNC(=O)C1CCc2ncc(-c3ccc(F)cc3)n2C1 (stereo not drawn),inactive: -18.3%,–,–
O=C(NC1CCCC1)c1ccc(CSc2nc3ccncc3n2Cc2ccccc2F)cc1,–,"inconclusive: 10 µM [inhibitor, single point]",–
Cc1cccc(CN2CCC(N3CCCC(C(=O)NC4CC4)C3)CC2)c1 (stereo not drawn),inactive: -22.6%,–,–
O=C1CO[C@H]2CN(C3CCC3)C[C@H]2N1c1ccccc1,inactive: -11.8% [at 44.1 µM],–,–
COc1ccc(-c2cnc3[nH]cc(CC(=O)N4CCOCC4)c3c2)cn1,–,"inconclusive: 3.16 µM [inhibitor, single point]",–
COCCN1CCCCC(CC(=O)Nc2cc(C)c(Cl)cc2OC)C1=O (stereo not drawn),–,"inconclusive: 17.8 µM [inhibitor, single point]",–
